The IC50 comes from the fitted curve, where viability falls to half of the control; fits outside the tested doses are given as limits. AUC sums up the same curve from the lowest dose to the 256-fold higher top dose; it is 1 without any effect and falls as sensitivity rises. Any top dose called inferred is not printed in the source and was worked back from the curve model. For some of these results: Where an entry number is given, a second screen of the drug exists; the two often differ.
Columns and labels:
Test in all cases: Viability of human cancer cell lines after 72 h of drug (GDSC screen)
Wee1 inhibitor 681640 = compound: O=C1NC(=O)c2c1c(-c1ccccc1Cl)cc1[nH]c3ccc(O)cc3c21 [Wee1 inhibitor 681640]; settings: top dose 2 µM; top dose inferred
Procedure: (§1)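 Human cancer cell lines in 384-well plates, medium with 10% serum, drug for 72 h over a 256-fold dose range (nine 2-fold or five 4-fold steps up to the top dose). Adherent lines were fixed and stained with the nucleic acid dye Syto60, suspension lines read with resazurin; signal relative to control wells, capped at 0 and 100%. One two-parameter sigmoid per drug and line, fitted in a mixed model over all curves with the slope shared within a line.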

SB-525334 = compound: Cc1cccc(-c2[nH]c(C(C)(C)C)nc2-c2ccc3nccnc3c2)n1 [SB-525334]; settings: top dose 20 µM; top dose inferred
Procedure: as §1

BIRB 0796 = compound: Cc1ccc(-n2nc(C(C)(C)C)cc2NC(=O)Nc2ccc(OCCN3CCOCC3)c3ccccc23)cc1 [BIRB 0796]; settings: top dose 10 µM; top dose inferred
Procedure: as §1

HG-5-113-01 = compound: CNC(=O)c1ccc(Nc2cc(Nc3ccccc3S(=O)(=O)C(C)C)c3cc[nH]c3n2)nc1 [HG-5-113-01]; settings: top dose 10 µM; top dose inferred
Procedure: as §1

BMS-536924 = compound: Cc1cc(N2CCOCC2)cc2[nH]c(-c3c(NC[C@@H](O)c4cccc(Cl)c4)cc[nH]c3=O)nc12 [BMS-536924]
Procedure: as §1

XMD8-85 = compound: COc1cc(N2CCN(C)CC2)ccc1Nc1ncc2c(n1)N(C)c1ccccc1C(=O)N2C [XMD8-85]; settings: top dose 8 µM; top dose inferred
Procedure: as §1

Shikonin = compound: CC(C)=CC[C@@H](O)C1=CC(=O)c2c(O)ccc(O)c2C1=O [Shikonin]; settings: top dose 16 µM; top dose inferred
Procedure: as §1

Olaparib = compound: O=C(c1cc(Cc2n[nH]c(=O)c3ccccc23)ccc1F)N1CCN(C(=O)C2CC2)CC1 [Olaparib]
Procedure: as §1

A-770041 = compound: COc1cc(-c2nn([C@H]3CC[C@H](N4CCN(C(C)=O)CC4)CC3)c3ncnc(N)c23)ccc1NC(=O)c1cc2ccccc2n1C [A-770041]; settings: top dose 5.12 µM; top dose inferred
Procedure: as §1

VX-702 = compound: NC(=O)c1ccc(N(C(N)=O)c2c(F)cccc2F)nc1-c1ccc(F)cc1F [VX-702]; settings: top dose 2 µM; top dose inferred
Procedure: as §1

CGP-082996 (CINK4) = compound: CCNc1cc(NC2CCC(O)CC2)nc(Nc2ccc3c(ccn3Cc3ccccc3)c2)n1 [CGP-082996 (CINK4)]; settings: top dose 5.12 µM; top dose inferred
Procedure: as §1

[1] = top dose 4 µM, screen: GDSC drug entry 1091, top dose inferred
[2] = top dose 5.12 µM, screen: GDSC drug entry 62
[3] = top dose 5 µM, screen: GDSC drug entry 1017, top dose inferred
[4] = top dose 10 µM, screen: GDSC drug entry 1495

Row | Cell Line | AUC (Wee1 inhibitor 681640) | IC50 (Wee1 inhibitor 681640) [µM] | AUC (SB-525334) | IC50 (SB-525334) [µM] | AUC (BIRB 0796) | IC50 (BIRB 0796) [µM] | AUC (HG-5-113-01) | IC50 (HG-5-113-01) [µM] | AUC (BMS-536924; [1]) | IC50 (BMS-536924; [1]) [µM] | AUC (BMS-536924; [2]) | IC50 (BMS-536924; [2]) [µM] | AUC (XMD8-85) | IC50 (XMD8-85) [µM] | AUC (Shikonin) | IC50 (Shikonin) [µM] | AUC (Olaparib; [3]) | IC50 (Olaparib; [3]) [µM] | AUC (Olaparib; [4]) | IC50 (Olaparib; [4]) [µM] | AUC (A-770041) | IC50 (A-770041) [µM] | AUC (VX-702) | IC50 (VX-702) [µM] | AUC (CGP-082996 (CINK4)) | IC50 (CGP-082996 (CINK4)) [µM]
1 | NMC-G1 (glioma, adherent) | 0.953 | > 2 | 0.858 | > 20 | 0.981 | > 10 | 0.743 | 3.72 | 0.968 | > 4 | 0.729 | 1.69 | 0.904 | > 8 | 0.524 | 1.18 | 0.949 | > 5 | 0.907 | > 10 | 0.561 | 0.487 | 0.969 | > 2 | 0.952 | > 5.12
2 | NOS-1 (osteosarcoma, adherent) | 0.896 | > 2 | 0.543 | 1.68 | 0.936 | > 10 | 0.806 | 6.54 | 0.794 | 2.33 | 0.367 | 0.126 | 0.738 | 2.85 | 0.793 | 9.25 | 0.924 | > 5 | 0.959 | > 10 | 0.459 | 0.241 | 0.961 | > 2 | 0.722 | 1.6
3 | OCI-AML3 (acute myeloid leukaemia, suspension) | 0.988 | > 2 | 0.987 | > 20 | 0.991 | > 10 | 0.799 | 4.04 | 0.902 | 3.92 | 0.981 | > 5.12 | 0.941 | > 8 | 0.301 | 0.304 | 0.966 | > 5 | 0.98 | > 10 | 0.991 | > 5.12 | 0.968 | > 2 | 0.991 | > 5.12
4 | OCI-AML5 (acute myeloid leukaemia, suspension) | 0.963 | > 2 | 0.973 | > 20 | 0.985 | > 10 | 0.65 | 1.57 | 0.682 | 0.768 | 0.448 | 0.234 | 0.823 | 4.17 | 0.333 | 0.36 | 0.961 | > 5 | 0.944 | > 10 | 0.944 | > 5.12 | 0.988 | > 2 | 0.949 | > 5.12
5 | OCI-LY-19 (B-cell lymphoma, suspension) | 0.924 | > 2 | 0.748 | 6.02 | 0.986 | > 10 | 0.77 | 3.53 | 0.966 | > 4 | 0.815 | 2.55 | 0.854 | 5.56 | 0.257 | 0.216 | 0.882 | 4.57 | 0.927 | > 10 | 0.966 | > 5.12 | 0.987 | > 2 | 0.943 | > 5.12
6 | OCUB-M (breast, adherent) | 0.978 | > 2 | 0.746 | 5.63 | 0.989 | > 10 | 0.683 | 1.87 | 0.972 | > 4 | 0.898 | 4.91 | 0.935 | > 8 | 0.518 | 1.11 | 0.958 | > 5 | 0.952 | > 10 | 0.862 | 3.44 | 0.99 | > 2 | 0.86 | 3.39
7 | ONS-76 (medulloblastoma, adherent) | 0.848 | 1.66 | 0.931 | > 20 | 0.946 | > 10 | 0.72 | 2.78 | 0.983 | > 4 | 0.927 | > 5.12 | 0.903 | > 8 | 0.311 | 0.282 | 0.89 | > 5 | 0.903 | > 10 | 0.953 | > 5.12 | 0.975 | > 2 | 0.971 | > 5.12
8 | OS-RC-2 (kidney, adherent) | 0.928 | > 2 | 0.91 | > 20 | 0.922 | > 10 | 0.742 | 4.32 | 0.883 | > 4 | 0.683 | 1.32 | 0.863 | > 8 | 0.357 | 0.335 | 0.973 | > 5 | 0.948 | > 10 | 0.589 | 0.626 | 0.964 | > 2 | 0.948 | > 5.12
9 | RH-1 (rhabdomyosarcoma, adherent) | 0.939 | > 2 | 0.66 | 3.19 | 0.989 | > 10 | 0.605 | 1.15 | 0.608 | 0.469 | 0.978 | > 5.12 | 0.946 | > 8 | 0.354 | 0.425 | 0.992 | > 5 | 0.871 | 6.89 | 0.984 | > 5.12 | 0.991 | > 2 | 0.988 | > 5.12
10 | RKO (large intestine, adherent) | 0.905 | > 2 | 0.967 | > 20 | 0.982 | > 10 | 0.841 | 6.22 | 0.971 | > 4 | 0.671 | 0.918 | 0.799 | 3.52 | 0.315 | 0.318 | 0.978 | > 5 | 0.974 | > 10 | 0.819 | 2.65 | 0.985 | > 2 | 0.882 | –
